The list shows a part of the results.
What follows are sequences tested on PF3D7_0420300 AP2 domain 1 (GST-tagged) (assay: gcPBM binding intensity (ln(normalized median fluorescence intensity)); higher = stronger DNA binding).
Method in brief: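 DNA-binding domains from P. falciparum, fused to GST and produced in E. coli, were put on an Agilent 4 × 180k double-stranded probe array for 1 h in 1× PBS holding 1% milk, 0.2 mg/ml BSA, 0.5% salmon testes DNA and 0.03% Triton X-100. Probes were primer-extended, 36 bp long and drawn from intergenic genomic regions, with negative controls included. After Alexa488 anti-GST antibody detection and a 488 nm scan, binding intensity was set as the highest Masliner-normalised natural-log median intensity across replicate spots of either probe orientation.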

Row | Sequence | gcPBM binding intensity (ln)
1 | ATATAAATATAAATATATATGTATAAATATAAATAT [CACACA_negctrl_site247] | 9.2
2 | AAAATATATATAAATGCATGCATAATGAAATATATA [TGCATGCA_site39] | 9.45
3 | TTTTAAAAAACAAACACACACGTAGAAAAAAAAAAA [CACACA_site4608] | 9.72
4 | CTGTATAAAACCAATGCATGTAAATATATTAATATA [TGCATGCA_site511] | 9.27
5 | GAAATTTTATTTCGGCGGACAAATGTATACTTTCTT [XGTACX_site4238] | 9.14
6 | GAGAAGACATTACACAGTACCCAGTAACTCTACGGA [XGTACX_site2000] | 9.27
7 | GATTATTATGTCCATGCATGTTAATATATATTAATT [TGCATGCA_site837] | 9.39
8 | AAATTGGGGCTTGTTACACACTTAGTGCGAGTTCTA [CACACA_site582] | 9.45
9 | TTATGATGGTCTTTATAAGGGCACATTAAATTCGGC [TGCATGCA_negctrl_site166] | 9.13
10 | AAACTATTCACTATAATACATTAGAAGTGAATAAAA [TGCATGCA_negctrl_site498] | 9.1
11 | ATATATTTAACAAGATGTACAATTTTATAAAAAATA [XGTACX_site2351] | 8.98
12 | CCATTATATCTAAGTACACACATTAATTTTTTTTTT [CACACA_site6115] | 9.41
13 | TATATATAAATATTCAGTACATAGTGCTATTAAGTG [XGTACX_site1979] | 9.25
14 | AGAAATTAATCGAGGTGTACGTACATCCAAATATAT [XGTACX_site7650] | 9.34
15 | TGAAAAGGAAATTGTTGTACATATGTTTCTTCCTAA [XGTACX_site3932] | 9.02
16 | AATAGCAATTTGGGGTGTACACACACCTTATTTAAA [XGTACX_site2234] | 9.45
17 | TTTTTATAAAAAAATAGTACTCGTCTAATCTTATGT [XGTACX_site8532] | 9.01
18 | ACAAAAAAGTAAAAAGTGCATGTAAAATATAAGTAT [GTGCAC_site9438] | 9.73
19 | AAATTGTGTTCATCAGCACACACAACATCATGTAAT [CACACA_site8556] | 9.63
20 | TTAATATATTATATTTGTACATATATATATATACAA [XGTACX_site4798] | 9.02
21 | AATAAATCTTTTTGTTGTACTAAAAATATTATTAGC [XGTACX_site3335] | 8.92
22 | CGAAAGAAAAAAAGCACACACAGTTTTGAGCAATGA [CACACA_site2109] | 9.62
23 | ACACATATGACAAATAGTACATAAATATATAAATAT [XGTACX_site7141] | 9.46

Row | Sequence | gcPBM binding intensity (ln)
24 | AATATTCACATTTGTTGTACATTCCTAGTTATATAA [XGTACX_site491] | 9.48
25 | AAAAAATTTCAAATAACACACACTAATATATATATG [CACACA_site1426] | 9.76
26 | TAAATATATAATTGTAGTACTGTTTTATGTTCATAA [XGTACX_site1020] | 9.23
27 | TAAACAGATATATTTTGTACATATTGTATATTTTGT [XGTACX_site713] | 9.27
28 | AAGGAAAATTTTTGGTGTACACAAAAAAATCCAAAA [XGTACX_site3596] | 9.17
29 | TAAAAAATGTTATATACACACAGTATAAAAAAAAAT [CACACA_site7808] | 9.64
30 | AATTAAATTATAAGCACACACATATATATATATATA [CACACA_site3351] | 9.41
31 | CCACGTATAATATGTACACACACATAAATACAAAAA [CACACA_site4660] | 9.85
32 | CTTATTTCCTTTTGTAGTACCTTATAATATATATAA [XGTACX_site8873] | 9.41
33 | GCATTTCTACTAAAAATACACACGATGATACAACGA [CACACA_site1756] | 9.28
34 | TTCTATTTGTAAAATTGTACAAAATAAATAACAAAA [XGTACX_site1007] | 8.99
35 | TAATAATAGTACTCACATCAAAGTATTATTAAAAAT [TGCATGCA_negctrl_site496] | 9.16
36 | GGGAAGTAGTAGTAATGTACTTATTTATTATGTGAC [XGTACX_site3985] | 9.22
37 | TTATATATTTTTTGCACACCAAAAAAGAGAATATTC [CACACA_site2730] | 9.2
38 | TATAAATATAAATACACACACATATATATTATATAT [CACACA_site4496] | 9.85
39 | TATATATATATATGTTGTACATATTTAAATGTTTAT [XGTACX_site5437] | 9.08
40 | ATATATATATATATGTGTACATAATAACTTTGCTTA [XGTACX_site1255] | 9.25
41 | ACCTATTTCAAACACACACACACACTAGCAAACATA [CACACA_site4695] | 10.3
42 | TAAATACAAAAATGTACACACATATATATATTTTTA [CACACA_site3503] | 9.42
43 | TAAATTTTAATATGCACACAAAATGTTATATTAAAA [CACACA_site4366] | 9.11
44 | CGGCACATTATATATACACACATATAAATATATACA [CACACA_site8086] | 9.5
45 | TATATCTTAATATACACACACACATATATATATATA [CACACA_site4968] | 9.92
46 | TAAATGAAAACCATTAGTACTTATACTGATAAATGT [XGTACX_site763] | 9.23

Row | Sequence | gcPBM binding intensity (ln)
47 | TATATAAATATATATACACACAAAAAAAAAAAAAAA [CACACA_site1406] | 9.46
48 | AAAAATAAAATAATATGTACATATATAATATATATA [XGTACX_site4786] | 9.28
49 | TATTCGAAAATTATTCAAATTATCTAACATATTATT [TGCATGCA_negctrl_site70] | 8.92
50 | AATTGGAAACAACCAAAAAAATTAAAGTTGTATCCT [CACACA_negctrl_site565] | 8.98
51 | TAATTTTTTAGACACACACACATATAAATATAAATA [CACACA_site6195] | 9.94
52 | TTGTATATTATATGTACACACAATAAGTTAATATAA [CACACA_site909] | 9.27
53 | TTCCTTTGTCCTAACTGTACTCAAATTTATTAGTGG [XGTACX_site226] | 9.3
54 | ATAATATATTTTTGAACACACAATATAGATTTATAT [CACACA_site7857] | 9.36
55 | TAATTAAAATTATCTACACACCTTTATAAATATATA [CACACA_site3928] | 9.26
56 | AAAAAAAGTTGATACTGTACTCGTGCATTATGAATA [XGTACX_site5558] | 9.26
57 | CTTATTAAAATTATTTGTACACAATATGTAAAAGTA [XGTACX_site7237] | 8.95
58 | AGGTATTTTCTTGTGACACACATATATATATATATT [CACACA_site2220] | 9.7
59 | TTTTGCAATAATGTTGCACACTAAATAGTCATATAT [CACACA_site7977] | 9.17
60 | TTTATATTGATATATACACACATATACATCCTATTT [CACACA_site7442] | 9.56
61 | ATTATTGTTGTTCATGTACACACTATAATAAAAGCA [CACACA_site4168] | 9.27
62 | ATTAATTATTTCAATGCATGTGAACACTATATATAA [TGCATGCA_site600] | 9.26
63 | TAAATATTTTTATGGGTGCGTTCTTTAGCGCAATTT | 8.92
64 | CATATAAAAAATATGGTGCAGTTTTTTTTTTTTTTT | 9.1
65 | TATATATATAATGTTTGTACATATTAAATATATATG [XGTACX_site407] | 9.1
66 | TCCATTTATAAATTAGCATGCAATCTATGTCTGATA [TGCATGCA_site1045] | 9.02
67 | ATCAAAAGAAAACACACACACATACAGATATATATA [CACACA_site5974] | 10.2
68 | AATTAATGGGTACATACACACATATATACCTACATA [CACACA_site4572] | 9.57
69 | ATATATCAATATAAAAGTACAAACAAAAAATAATCA [XGTACX_site7559] | 9.68

Row | Sequence | gcPBM binding intensity (ln)
70 | GATATATACTCCATCACACACCAAAAAGAAAAAAGA [CACACA_site7242] | 9.53
71 | ATATATATATATATATGTACATATTTCTCCATTTTT [XGTACX_site2869] | 9.01
72 | CATATTTTTATAAATTGTACGTATATTATATATATA [XGTACX_site1816] | 9.18
73 | GTTTTTTATAATTGTAGTACAAGAAGATATTTTTAT [XGTACX_site5443] | 9.19
74 | TGCAATTGTAAAGGCGCACACATATATATATATATA [CACACA_site4894] | 9.42
75 | GCATTGTCCATGCGCACACACTACTAGAATAATATG [CACACA_site5932] | 9.49
76 | AAACCGTGGGAGCACACACACACACCGACACATATA [CACACA_site4338] | 10.1
77 | CCATCTAAACACAACTCGAGTTGGATGTGTGAACTT [XGTACX_negctrl_site83] | 9.3
78 | CGGCACATTATATATACACACATATAAATAAATACA [CACACA_site4477] | 9.6
79 | TATATATATAAGTGCACACTGAACCAAGAAAATTAT [CACACA_site3008] | 9.59
80 | GGATTGATAAGTGGTACACACATATAGATTATAGAT [CACACA_site7367] | 9.53
81 | AATATTAAATGAAAAAGTACAAACAGTCCTATATTA [XGTACX_site1926] | 9.23
82 | ATTTATATAAAGAATGTACACACAGAAATGCACCCA [CACACA_site8715] | 9.65
83 | CGTATGCACAAATTATGTACTTATATATATATATAT [XGTACX_site2348] | 9.34
84 | TAAATATATATATGTGTGCACTTCTTCATTTTAATA [GTGCAC_site9537] | 9.47
85 | AAAAAAAAAAAACATACACACAAATAAATACATACA [CACACA_site6073] | 9.9
86 | ATACAAGAATTAAACACACACAAAATATAAATTCTT [CACACA_site3005] | 9.9
87 | AGCAACCTGAAAAAATTACTCTTTCTTAAACAAATT [XGTACX_negctrl_site266] | 8.92
88 | ACCTGTAAAAATGTTTATATATATATATATATATAT [CACACA_negctrl_site1500] | 9.33
89 | TTAAGGATTAAGGTGTGTACATATAAATATTATATA [XGTACX_site7532] | 9.31

— the supplement of paper PMC11417369
